Measurements reported in PMC5908291, “The JmjN domain as a dimerization interface and a targeted inhibitor of KDM4 demethylase activity” (Oncotarget, 2018).
These are yes or no findings as the source states them, for the method shown. For part of these data: In cells and extracts the contact can be indirect. Some entries that bind do so weakly or less than the wild type. Where a sequence is shown, tags or fusion partners need not be part of it.

By UniProt entry, the sequences of proteins in these tests, tags left out.
UniProt O94953: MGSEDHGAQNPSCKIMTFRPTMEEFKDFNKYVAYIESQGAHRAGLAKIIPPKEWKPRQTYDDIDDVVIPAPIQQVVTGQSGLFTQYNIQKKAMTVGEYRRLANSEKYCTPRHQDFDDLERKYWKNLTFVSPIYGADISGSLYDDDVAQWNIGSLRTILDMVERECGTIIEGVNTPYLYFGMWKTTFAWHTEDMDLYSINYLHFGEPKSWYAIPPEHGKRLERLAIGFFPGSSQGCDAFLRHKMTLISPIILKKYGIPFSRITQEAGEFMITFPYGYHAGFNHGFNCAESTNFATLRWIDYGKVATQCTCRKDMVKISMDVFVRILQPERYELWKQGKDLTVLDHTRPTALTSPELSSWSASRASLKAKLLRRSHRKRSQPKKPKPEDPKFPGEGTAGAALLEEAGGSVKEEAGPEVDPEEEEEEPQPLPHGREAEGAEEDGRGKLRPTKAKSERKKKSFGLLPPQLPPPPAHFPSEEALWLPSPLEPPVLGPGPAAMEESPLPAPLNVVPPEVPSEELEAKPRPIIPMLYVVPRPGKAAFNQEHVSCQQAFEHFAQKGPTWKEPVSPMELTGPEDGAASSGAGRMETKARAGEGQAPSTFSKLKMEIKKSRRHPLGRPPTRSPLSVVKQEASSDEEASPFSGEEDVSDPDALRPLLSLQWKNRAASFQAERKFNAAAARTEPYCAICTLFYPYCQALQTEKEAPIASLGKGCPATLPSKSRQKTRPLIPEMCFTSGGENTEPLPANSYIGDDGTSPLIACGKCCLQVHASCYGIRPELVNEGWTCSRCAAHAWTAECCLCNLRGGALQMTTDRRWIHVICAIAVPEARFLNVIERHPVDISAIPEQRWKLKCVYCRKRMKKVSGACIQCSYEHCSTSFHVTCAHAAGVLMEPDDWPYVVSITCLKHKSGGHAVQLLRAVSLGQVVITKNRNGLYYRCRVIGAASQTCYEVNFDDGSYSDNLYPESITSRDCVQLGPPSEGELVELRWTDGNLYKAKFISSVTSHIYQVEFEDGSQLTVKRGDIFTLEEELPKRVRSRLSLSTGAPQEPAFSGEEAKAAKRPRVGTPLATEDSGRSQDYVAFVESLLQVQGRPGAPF

T1: KDM4C with a C-terminal YN or YC tag (human, UniProt Q9H3R0 1-1056)
T1 construct: Lysine demethylase KDM4C (GASC1), human, ORF amplified from pCMV-HA-GASC1; 1056 aa as printed; BiFC pair: one molecule stands for the YN and the YC conjugate; also called KDM4C-YN; KDM4C-YC; source: HEK293, transiently transfected, in cells; not shown: YN (Venus YFP residues 1-172) on one copy or YC (Venus YFP residues 155-238) on the other, C-terminal, kept
T1 sequence (looked up): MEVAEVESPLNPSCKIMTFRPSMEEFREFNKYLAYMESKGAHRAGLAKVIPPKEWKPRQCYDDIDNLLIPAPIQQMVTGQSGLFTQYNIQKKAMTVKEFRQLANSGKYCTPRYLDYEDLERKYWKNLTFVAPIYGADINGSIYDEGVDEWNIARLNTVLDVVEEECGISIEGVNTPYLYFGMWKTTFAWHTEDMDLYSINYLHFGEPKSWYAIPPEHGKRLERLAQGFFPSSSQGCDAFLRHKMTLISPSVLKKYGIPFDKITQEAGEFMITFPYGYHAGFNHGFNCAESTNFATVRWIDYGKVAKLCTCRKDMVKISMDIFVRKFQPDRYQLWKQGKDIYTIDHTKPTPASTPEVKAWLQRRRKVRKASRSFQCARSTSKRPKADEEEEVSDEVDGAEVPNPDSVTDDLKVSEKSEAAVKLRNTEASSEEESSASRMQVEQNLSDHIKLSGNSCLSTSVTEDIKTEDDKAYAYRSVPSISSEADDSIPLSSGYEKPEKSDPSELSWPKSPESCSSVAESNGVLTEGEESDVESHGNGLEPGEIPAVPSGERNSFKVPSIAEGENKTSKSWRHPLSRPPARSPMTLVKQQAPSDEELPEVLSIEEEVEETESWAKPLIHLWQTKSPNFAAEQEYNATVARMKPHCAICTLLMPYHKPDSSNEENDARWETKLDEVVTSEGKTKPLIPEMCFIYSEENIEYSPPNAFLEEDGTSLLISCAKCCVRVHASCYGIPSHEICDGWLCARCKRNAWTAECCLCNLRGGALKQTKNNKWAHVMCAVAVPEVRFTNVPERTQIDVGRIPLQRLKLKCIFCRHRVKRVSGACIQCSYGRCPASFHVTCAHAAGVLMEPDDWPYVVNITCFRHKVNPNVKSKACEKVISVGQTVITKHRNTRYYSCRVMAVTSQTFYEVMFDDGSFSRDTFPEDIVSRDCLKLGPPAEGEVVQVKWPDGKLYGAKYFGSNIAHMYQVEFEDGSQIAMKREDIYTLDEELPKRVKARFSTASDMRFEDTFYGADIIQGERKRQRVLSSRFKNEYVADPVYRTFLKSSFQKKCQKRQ

T2: KDM4A with a C-terminal YN or YC tag (human) (UniProt O75164)
T2 sequence: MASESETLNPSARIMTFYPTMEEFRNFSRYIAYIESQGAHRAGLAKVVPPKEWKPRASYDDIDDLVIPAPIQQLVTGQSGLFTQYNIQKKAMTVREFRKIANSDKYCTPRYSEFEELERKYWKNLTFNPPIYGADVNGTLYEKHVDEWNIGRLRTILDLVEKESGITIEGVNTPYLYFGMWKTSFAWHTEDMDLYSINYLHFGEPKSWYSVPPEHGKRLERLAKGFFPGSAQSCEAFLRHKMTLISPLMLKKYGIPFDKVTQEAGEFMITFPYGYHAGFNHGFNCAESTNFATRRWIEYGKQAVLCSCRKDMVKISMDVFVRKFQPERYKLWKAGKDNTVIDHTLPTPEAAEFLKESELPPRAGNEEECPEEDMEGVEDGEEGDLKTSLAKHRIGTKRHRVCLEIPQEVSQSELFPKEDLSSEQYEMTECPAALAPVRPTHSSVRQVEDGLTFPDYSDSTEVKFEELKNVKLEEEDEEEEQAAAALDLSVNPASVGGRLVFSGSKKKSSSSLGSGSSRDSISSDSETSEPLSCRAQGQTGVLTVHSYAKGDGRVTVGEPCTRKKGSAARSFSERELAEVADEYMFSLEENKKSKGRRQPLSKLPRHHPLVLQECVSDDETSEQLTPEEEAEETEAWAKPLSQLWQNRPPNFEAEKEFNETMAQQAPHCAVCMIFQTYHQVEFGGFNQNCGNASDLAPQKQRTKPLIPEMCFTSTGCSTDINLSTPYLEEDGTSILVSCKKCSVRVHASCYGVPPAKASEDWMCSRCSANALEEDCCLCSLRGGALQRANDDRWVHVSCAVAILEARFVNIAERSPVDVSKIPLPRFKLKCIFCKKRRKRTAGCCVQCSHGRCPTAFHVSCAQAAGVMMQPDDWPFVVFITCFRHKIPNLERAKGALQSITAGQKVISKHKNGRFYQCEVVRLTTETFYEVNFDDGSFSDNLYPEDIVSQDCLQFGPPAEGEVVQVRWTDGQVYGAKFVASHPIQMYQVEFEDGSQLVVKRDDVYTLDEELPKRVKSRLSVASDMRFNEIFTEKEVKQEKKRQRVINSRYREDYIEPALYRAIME

T3: isolated JmjC domain of KDM4C with a C-terminal YN or YC tag (human) (UniProt Q9H3R0)
T3 sequence: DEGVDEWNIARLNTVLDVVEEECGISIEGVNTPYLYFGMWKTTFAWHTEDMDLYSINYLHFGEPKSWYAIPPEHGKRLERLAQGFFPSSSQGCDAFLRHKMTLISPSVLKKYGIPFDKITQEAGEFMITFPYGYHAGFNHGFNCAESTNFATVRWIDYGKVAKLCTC

B1: isolated JmjN domain of KDM4C with a C-terminal YN or YC tag (domain or fragment, UniProt Q9H3R0 1-58)
chain: MEVAEVESPLNPSCKIMTFRPSMEEFREFNKYLAYMESKGAHRAGLAKVIPPKEWKPR
B2: isolated JmjC domain of KDM4C with a C-terminal YN or YC tag (domain or fragment, UniProt Q9H3R0 144-310)
chain: DEGVDEWNIARLNTVLDVVEEECGISIEGVNTPYLYFGMWKTTFAWHTEDMDLYSINYLHFGEPKSWYAIPPEHGKRLERLAQGFFPSSSQGCDAFLRHKMTLISPSVLKKYGIPFDKITQEAGEFMITFPYGYHAGFNHGFNCAESTNFATVRWIDYGKVAKLCTC

What was measured:
[1] = molecular target: isolated JmjN domain of KDM4C with a C-terminal YN or YC tag (human) (UniProt Q9H3R0); test: split reporter; BiFC (Venus YN + YC), live cell confocal imaging of HEK293 cells 20 h after co-transfection, 37°C, 5% CO2
[2] = molecular target: isolated JmjN domain of KDM4C with a C-terminal YN or YC tag (human) (UniProt Q9H3R0); test: SDS-PAGE and Western blot (dimer band); total cell extracts (50 μg) of HEK293 cells transfected with YN- and YC-tagged domains, 12.5% SDS-PAGE, anti-YFP blot
[3] = molecular target: T1, KDM4C with a C-terminal YN or YC tag; test: split reporter; BiFC (Venus YN + YC), immunofluorescence microscopy of fixed, permeabilised HEK293 cells 20 h after co-transfection; transfected cells marked by anti-YFP, anti-KDM4C or anti-HA
[4] = molecular target: T2, KDM4A with a C-terminal YN or YC tag (human); test: as above
[5] = molecular target: KDM4B with a C-terminal YN or YC tag (human) (UniProt O94953); test: as above
[6] = molecular target: T3, isolated JmjC domain of KDM4C with a C-terminal YN or YC tag (human); test: as above
[7] = molecular target: isolated JmjN domain of KDM4C with a C-terminal YN or YC tag (human) (UniProt Q9H3R0); test: as above
[8] = molecular target: T3, isolated JmjC domain of KDM4C with a C-terminal YN or YC tag (human); test: split reporter; BiFC (Venus YN + YC), live cell confocal imaging of HEK293 cells 20 h after co-transfection, 37°C, 5% CO2
[9] = molecular target: T3, isolated JmjC domain of KDM4C with a C-terminal YN or YC tag (human); test: SDS-PAGE and Western blot (dimer band); total cell extracts (50 μg) of HEK293 cells transfected with YN- and YC-tagged domains, 12.5% SDS-PAGE, anti-YFP blot

Row | Binder | binding [1] | binding [2] | binding [3] | binding [4] | binding [5] | binding [6] | binding [7] | binding [8] | binding [9]
1 | B1 | binds | binds | binds | binds | binds | no binding | binds |  | 
2 | B2 |  |  |  |  |  |  |  | no binding | no binding
